The supplement of paper PMC12217912
The other results are listed elsewhere or left out. Sequences were assembled here from the parent chain. Values near 0.05 are background.

B1: TEV protease; numbered along this chain (parent)
chain: MGESLFKGPRDYNPISSSICHLTNESDGHTTSLYGIGFGPFIITNKHLFRRNNGTLVVQSLHGVFKVKDTTTLQQHLVDGRDMIIIRMPKDFPPFPQKLKFREPQREERICLVTTNFQTKSMSSMVSDTSCTFPSGDGIFWKHWIQTKDGQCGSPLVSTRDGFIVGIHSASNFTNTNNYFTSVPKNFMELLTNQEAQQWVSGWRLNADSVLWGGHKVFMVKPEEPFQPVKEATQL

Variants of: B1
Assay: raw area under fraction-flipped curve 0-4 h after induction (AUC4h, not background-subtracted), DNA-recorder readout of cleavage of the substrate (dimensionless); higher = more cleavage of the substrate by the protease variant
Settings: temperature: 34 °C; time window: 0-4 h after rhamnose induction
Protocol: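 In vivo DNA recorder in E. coli TOP10(DE3) ΔrhaA at 34 °C. Each TEVp single-site mutant (parent TEVp 0) is paired with a single-site variant of the 7-mer TEVs (canonical ENLYFQ|S). The substrate sits between flexible linkers in a Bxb1-sfGFP-TEVs-SsrA fusion, so cleavage stabilises Bxb1 and speeds flipping of a recombination array, read by NGS. The value is the raw area under the fraction-flipped curve over 0-4 h after rhamnose induction (AUC4h), with ≥20 reads per time point. It is not background-subtracted; inactive controls average about 0.047.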
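Note: Bxb1 expression induced with 0.2% (w/v) L-rhamnose at OD600 near 0.5, cultures sampled hourly, flipped fraction per protease–substrate barcode pair counted by paired-end Illumina sequencing.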

Variant | area with substrate ENLCFQS | area with substrate ENLDFQS | area with substrate ENLEFQS | area with substrate ENLFFQS | area with substrate ENLHFQS | area with substrate ENLIFQS | area with substrate ENLKFQS | area with substrate ENLLFQS | area with substrate ENLMFQS | area with substrate ENLNFQS | area with substrate ENLPFQS | area with substrate ENLQFQS | area with substrate ENLRFQS | area with substrate ENLSFQS | area with substrate ENLVFQS | area with substrate ENLWFQS | area with substrate ENLGFQS | area with substrate ENLTFQS
MGESLFKGPRDYNPISSSICHLTNESDGHTTSLYGIGFGPFIITNKHLFRRNNGTLVVQSLHGVFKVKDTTTLQQHLVDGRDMIIIRMPKDFPPFPQKLKFREPQREERICLVTTNFQTKSMSSMVSDTSCTFPSGDGIFWKHWIQTKDGQCGSILVSTRDGFIVGIHSASNFTNTNNYFTSVPKNFMELLTNQEAQQWVSGWRLNADSVLWGGHKVFMVKPEEPFQPVKEATQL [P155I] | 0.0651 | 0.0626 | 0.0583 | 0.0862 | 0.0563 | 0.0673 | 0.0725 | 0.0532 | 0.0607 | 0.0587 | 0.0602 | 0.0567 | 0.0561 | 0.0315 | 0.0676 | 0.0559 | – | –
MGESLFKGPRDYNPISSSICHLTNESDGHTTSLYGIGFGPFIITNKHLFRRNNGTLVVQSLHGVFKVKDTTTLQQHLVDGRDMIIIRMPKDFPPFPQKLKFREPQREERICLVTTNFQTKSMSSMVSDTSCEFPSGDGIFWKHWIQTKDGQCGSPLVSTRDGFIVGIHSASNFTNTNNYFTSVPKNFMELLTNQEAQQWVSGWRLNADSVLWGGHKVFMVKPEEPFQPVKEATQL [T132E] | 0.0731 | – | 0.0534 | – | 0.0733 | – | 0.0714 | – | – | 0.0646 | 0.0515 | 0.0455 | – | 0.0664 | 0.0495 | – | – | –
MGCSLFKGPRDYNPISSSICHLTNESDGHTTSLYGIGFGPFIITNKHLFRRNNGTLVVQSLHGVFKVKDTTTLQQHLVDGRDMIIIRMPKDFPPFPQKLKFREPQREERICLVTTNFQTKSMSSMVSDTSCTFPSGDGIFWKHWIQTKDGQCGSPLVSTRDGFIVGIHSASNFTNTNNYFTSVPKNFMELLTNQEAQQWVSGWRLNADSVLWGGHKVFMVKPEEPFQPVKEATQL [E3C] | 0.0845 | 0.0797 | – | 0.0962 | 0.103 | – | – | – | – | 0.0516 | – | 0.0627 | 0.0804 | – | 0.0701 | 0.0985 | – | –
MGESLFKGPRDYNPISSSICHLTNESDGHTTSLYGIGFGPFIITNKHLFRRNNGTLVVQSLHGVFKVKDTTTLQQHLVDGRDMIIIRMPKDFPPFPQKLKFREPQREERICLVTTNFQTKSMSSMVSDTSCTFPSGDGIFWKHWIQTKDGQCGSPLVSTRDGFIVGIHSASNFTNTNNYFTSVPKNFMELLTNQEAVQWVSGWRLNADSVLWGGHKVFMVKPEEPFQPVKEATQL [Q197V] | 0.0612 | 0.0642 | 0.069 | 0.0898 | 0.0594 | 0.0966 | 0.0757 | 0.0721 | – | – | 0.044 | 0.0605 | 0.0725 | 0.0658 | 0.0541 | – | 0.0545 | 0.0709
MGESLFKGPRDYNPISSSICHLTNESDGHTTSLYGIGFGPFIITNKHLFRRNNGTLVVQSLHGVFKVKDTTTLQQHLVDGRDMIIIRMPKDFPPFPQKLKFREPQREERICLVTTNFQTKSMSSMVSDTSCTFPSGDGIFWKHWIQTKDGQCGSPLVSTRDGFIVGIHSASNFTNTNNYFTSVPKNFMELLTNQEAQQWVSGWRLNADSVLWGGHKVFMVKPEEPFQPVKEATQQ [L235Q] | 0.0677 | 0.0714 | 0.0624 | 0.107 | 0.0692 | 0.107 | – | 0.0827 | – | 0.0667 | 0.0622 | – | 0.0833 | – | 0.0707 | 0.0671 | – | –
MGESLFKGPRDYNPISSSICHLTNESDGHTTSLYGIGFGPFIITNKHLFRRNNGTLVVQSLHGVFMVKDTTTLQQHLVDGRDMIIIRMPKDFPPFPQKLKFREPQREERICLVTTNFQTKSMSSMVSDTSCTFPSGDGIFWKHWIQTKDGQCGSPLVSTRDGFIVGIHSASNFTNTNNYFTSVPKNFMELLTNQEAQQWVSGWRLNADSVLWGGHKVFMVKPEEPFQPVKEATQL [K66M] | 0.0668 | 0.0571 | 0.0848 | 0.0755 | 0.0653 | – | 0.0651 | 0.0512 | – | 0.0648 | 0.0619 | 0.0799 | 0.0701 | 0.0549 | 0.0777 | 0.0564 | 0.0593 | –
MGESLFKGPRDYNPISSSICHLTNESDGHTTSLYGIGFGPFIITNKHLFRRNNGTLVVQSLHGVFKVKDTTTLQQHLVDGRDMIIIRMPKDFPPFPQKLKFREPQREERICLVTTNFQTKSMSSMVSDTSCTFPSGDGIFWKHWIQTKDGQCGSPLESTRDGFIVGIHSASNFTNTNNYFTSVPKNFMELLTNQEAQQWVSGWRLNADSVLWGGHKVFMVKPEEPFQPVKEATQL [V157E] | 0.0691 | 0.0563 | 0.0471 | 0.0513 | 0.0575 | 0.0821 | 0.0664 | 0.023 | – | 0.0483 | 0.0586 | 0.0384 | – | 0.0422 | 0.0534 | 0.0512 | – | –
MGESLFKGPRDYNPISSSICHLTNESDGHTTSLYGIGFGPFIITNKHLFRRNNGTLVVQSLHGVFKVKDTTTLQQHLVDGRDMIIIRMPKDFPPFPQKLKFREPQREERICLVTTNFQTKSMSSMVSDTSCTFPSGDGIFWKHWIQTKDGQCGSPLVSTRDGFIVGIHSASNFTNTNNYFTSVPKNFMELLTNQEAQQWVSGWRLNADSVLWGGHKVFMVKPEEPFQPVKEATQE [L235E] | 0.0755 | – | – | – | – | – | 0.0853 | – | 0.064 | 0.0659 | 0.0643 | – | 0.0571 | – | – | – | – | –
MGESLFKGPRDYNPISSSICHLTNESDGHTTSLYGIGFGPFIITNKHLFRRNNGTLVVQSLHGVFKVKDTTTLQQHLVDGRDMIIIRMPKDFPPFPQKLKFREPQREERICLVTTNFQTKSMSSMVSDTSCTFPSGDGIFWKHWIQTKDGQCGSPLVSTRDGFIVGIHSASNFTNTNNYFTSVFKNFMELLTNQEAQQWVSGWRLNADSVLWGGHKVFMVKPEEPFQPVKEATQL [P184F] | 0.0576 | 0.0641 | – | 0.085 | 0.0608 | 0.0648 | 0.0669 | – | – | 0.0688 | 0.0793 | 0.0565 | 0.0665 | 0.0705 | 0.061 | 0.0499 | 0.0636 | –
